Measurements reported in publication PMC12906832, “Transgenic Tobacco Plants Expressing Synthetic Peptides: A Functional and Structural Analysis for Pathogen Resistance” (Plant Biotechnology Journal, 2025).

System: 5:4:3 POPC/POPE/STG vesicles
Experiment: Calcein dye leakage assay, plant membrane mimic
Conditions: compared to KG18 and VR18 (Figure S12B)
Protocol: […] LPS and peptides were dissolved in 10mM phosphate buffer (pH 7.4), filtered and degassed. LPS was titrated with increasing concentrations of the peptide solution, in a low-volume disposable cuvette.
The viscosity and refractive index of 10 mM phosphate buffer (pH 7.4) was set at 0.8924 and 1.330, respectively for data analysis. Autocorrelation data was used to generate the particle size distributions from the non-negative least squares fit algorithm provided in the instrument. Similar experiments were performed using LPS bicelles. DLS was performed in triplicates and three independent experimental sets were recorded. […]
NMR experiments were performed at 25 °C on a Bruker Avance III 500 MHz NMR spectrometer, equipped with a 5 mm SMART probe. […] The interaction of LPS with the peptides was monitored by 1D proton NMR spectra monitoring the line broadening effect LPS in the presence of increasing concentrations of peptides. […] 5 mM LPS alone and with increasing concentrations of peptides, with and without 0.1 mM MnCl2 as a paramagnetic quencher, were recorded with 1024 scans. […]
Passing the suspension through a mini extruder (Avanti Polar Lipids, Alabaster, AL) using stacked 100 nm pore size polycarbonate membrane filters 23 times generated large unilamellar vesicles (LUVs). […] Calcein leakage was monitored using Hitachi F-7000FL spectrophotometer (slit width: 2.5 nm). […]

Polymyxin B
perturbation of plant model membrane mimic by reference AMPs: significant perturbation
